Assay results published in US12459974B2, “Bicyclic peptide ligands specific for Nectin-4” (priority 2018, dated 2025).
Not every detail of the peptide structures is certain; ends, links or a residue may be inferred. *1 amine or outer side, *2 acyl side, *3 side chain or, on linkers, in order; H or OH if unused. Where a SMILES comes first, the peptide text is derived from it. Bridges are numbered along the chain shown (N, C = ends). [ ]: non-standard residue; d: D form. TATA = O=C(CC[*:1])N1CN(C(=O)CC[*:2])CN(C(=O)CC[*:3])C1; 2Nal = N[C@@H](Cc1ccc2ccccc2c1)C(=O)O; hArg = N=C(N)NCCCC[C@H](N)C(=O)O

Target: T1, human Nectin-4 (Homo sapiens, UniProt Q96NY8)
T1 sequence (Q96NY8 32-510): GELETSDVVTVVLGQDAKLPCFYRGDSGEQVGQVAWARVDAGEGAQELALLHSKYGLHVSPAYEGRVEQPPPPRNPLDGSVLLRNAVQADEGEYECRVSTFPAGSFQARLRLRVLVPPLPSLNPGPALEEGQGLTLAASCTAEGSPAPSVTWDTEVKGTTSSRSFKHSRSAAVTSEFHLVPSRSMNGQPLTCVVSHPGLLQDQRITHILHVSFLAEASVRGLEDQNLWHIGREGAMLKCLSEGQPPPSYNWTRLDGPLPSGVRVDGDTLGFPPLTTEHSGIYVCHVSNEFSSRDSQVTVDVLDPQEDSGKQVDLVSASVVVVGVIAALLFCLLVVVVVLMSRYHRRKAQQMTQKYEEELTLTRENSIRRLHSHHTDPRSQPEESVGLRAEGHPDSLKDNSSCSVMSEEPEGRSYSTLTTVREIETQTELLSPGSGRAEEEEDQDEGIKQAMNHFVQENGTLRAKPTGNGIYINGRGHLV
Experiment: Nectin-4 competition binding assay (fluorescence polarisation)
Conditions: competition with fluorescent peptide SEQ ID NO: 217
Summary of the method: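 Ki derived by cubic-equation fit of mP data, with tracer peptide concentration, its Kd and Nectin-4 level as fixed inputs. Competition set up by adding 2-fold peptide dilutions (≤5% DMSO), then Nectin-4, then fluorescent peptide; polarisation measured as for direct binding.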

Compound	Ki [nM]
CC[C@H](C)[C@@H]1NC(=O)[C@H](CCCNC(=N)N)NC(=O)[C@H](CC(N)=O)NC(=O)[C@@H]2CSCCC(=O)N3CN(CN(C3)C(=O)CCSC[C@H](NC(=O)[C@H](Cc3ccc4ccccc4c3)NC(=O)[C@H](CCCCN)NC(=O)[C@H](CCC(N)=O)NC(C)=O)C(=O)N[C@@H](C)C(=O)N3CCC[C@H]3C(=O)N[C@@H](CC(C)C)C(=O)N[C@@H](CO)C(=O)N[C@@H](CC(=O)O)C(=O)N[C@@H](Cc3ccc(O)cc3)C(=O)N[C@@H](Cc3c[nH]c4ccccc34)C(=O)N2)C(=O)CCSC[C@@H](C(N)=O)NC1=O [BCY7997, Ac-QK[2Nal]-(SEQ ID NO: 34)] (Ac-QK[2Nal]CAPLSDYWCNRIC-NH2; linker 4-12-16 via TATA; C-terminus assumed)	22
CC[C@H](C)[C@@H]1NC(=O)[C@H](CCCNC(=N)N)NC(=O)[C@@H](CC(=O)O)NC(=O)[C@@H]2CSCCC(=O)N3CN(CN(C3)C(=O)CCSC[C@H](NC(=O)[C@H](Cc3c[nH]c4ccccc34)NC(=O)[C@H](CCCCN)NC(=O)[C@H](CCC(N)=O)NC(C)=O)C(=O)N[C@@H](C)C(=O)N3CCC[C@H]3C(=O)N[C@@H](CC(C)C)C(=O)N[C@@H](CO)C(=O)N[C@@H](CC(=O)O)C(=O)N[C@@H](Cc3ccc(O)cc3)C(=O)N[C@@H](Cc3c[nH]c4ccccc34)C(=O)N2)C(=O)CCSC[C@@H](C(N)=O)NC1=O [BCY8000, Ac-QKW-(SEQ ID NO: 154)] (Ac-QKWCAPLSDYWC[dD]RIC-NH2; linker 4-12-16 via TATA; C-terminus assumed)	60
CC[C@H](C)[C@@H]1NC(=O)[C@@H]2CCCN2C(=O)[C@H]([C@@H](C)O)NC(=O)[C@H](CO)NC(=O)[C@H](Cc2c[nH]c3ccccc23)NC(=O)[C@H](CC(N)=O)NC(=O)[C@H](CCCCNC(=N)N)NC(=O)[C@H](CCSC)NC(=O)[C@@H]2CSCCC(=O)N3CN(CN(C3)C(=O)CCSC[C@H](NC(C)=O)C(=O)N3CCC[C@H]3C(=O)N[C@@H](Cc3ccc4ccccc4c3)C(=O)N[C@H](CC(=O)O)C(=O)N2)C(=O)CCSC[C@@H](C(N)=O)NC(=O)[C@H](Cc2c[nH]c3ccccc23)NC1=O [BCY8031, Ac-(SEQ ID NO: 156)]	3.6
CSCC[C@@H]1NC(=O)[C@@H]2CSCCC(=O)N3CN(CN(C3)C(=O)CCSC[C@H](NC(C)=O)C(=O)N3CCC[C@H]3C(=O)N[C@@H](Cc3ccccc3)C(=O)N[C@H](CC(=O)O)C(=O)N2)C(=O)CCSC[C@@H](C(N)=O)NC(=O)[C@H](Cc2c[nH]c3ccccc23)NC(=O)[C@@H]2CCCN2C(=O)[C@@H]2CCCN2C(=O)[C@H]([C@@H](C)O)NC(=O)[C@H](CO)NC(=O)[C@H](Cc2c[nH]c3ccccc23)NC(=O)[C@H](CC(N)=O)NC(=O)[C@H](CCCCNC(=N)N)NC1=O [BCY8036, Ac-(SEQ ID NO: 158)] (Ac-CPF[dD]CM[hArg]NWSTPPWC-NH2; linker 1-5-15 via TATA; C-terminus assumed)	7.5
CSCC[C@@H]1NC(=O)[C@@H]2CSCCC(=O)N3CN(CN(C3)C(=O)CCSC[C@H](NC(C)=O)C(=O)N3CCC[C@H]3C(=O)N[C@@H](Cc3ccccc3)C(=O)N[C@H](CC(=O)O)C(=O)N2)C(=O)CCSC[C@@H](C(N)=O)NC(=O)[C@H](Cc2c[nH]c3ccccc23)NC(=O)[C@@H]2C[C@@H](O)CN2C(=O)[C@@H]2CCCN2C(=O)[C@H]([C@@H](C)O)NC(=O)[C@H](CO)NC(=O)[C@H](Cc2c[nH]c3ccccc23)NC(=O)[C@H](CC(N)=O)NC(=O)[C@H](CCCCNC(=N)N)NC1=O [BCY8037, Ac-(SEQ ID NO: 159)]	5.6
CC[C@H](C)[C@@H]1NC(=O)[C@@H]2CCCN2C(=O)[C@H]([C@@H](C)O)NC(=O)[C@H](CO)NC(=O)[C@H](Cc2c[nH]c3ccccc23)NC(=O)[C@H](CC(N)=O)NC(=O)[C@H](CCCCNC(=N)N)NC(=O)[C@H](CCSC)NC(=O)[C@@H]2CSCCC(=O)N3CN(CN(C3)C(=O)CCSC[C@H](NC(C)=O)C(=O)N3CCC[C@H]3C(=O)N[C@@H](Cc3ccc(O)cc3)C(=O)N[C@H](CC(=O)O)C(=O)N2)C(=O)CCSC[C@@H](C(N)=O)NC(=O)[C@H](Cc2c[nH]c3ccccc23)NC1=O [BCY8040, Ac-(SEQ ID NO: 162)] (Ac-CPY[dD]CM[hArg]NWSTPIWC-NH2; linker 1-5-15 via TATA; C-terminus assumed)	10.8
